Laboratory results as given in article PMC4336329 (PLoS ONE, 2015).
Among all 310,000 compounds or so, about 2,200 (0.71%) showed an effect of 50% or more. Effects have a minus sign here. This is one part of the list.

molecular target: human ether-à-go-go-related gene (hERG) potassium channel (human, UniProt Q12809); assay: primary screen, population patch clamp on CHO cells stably expressing hERG
Sequence (Q12809 whole entry, looked up): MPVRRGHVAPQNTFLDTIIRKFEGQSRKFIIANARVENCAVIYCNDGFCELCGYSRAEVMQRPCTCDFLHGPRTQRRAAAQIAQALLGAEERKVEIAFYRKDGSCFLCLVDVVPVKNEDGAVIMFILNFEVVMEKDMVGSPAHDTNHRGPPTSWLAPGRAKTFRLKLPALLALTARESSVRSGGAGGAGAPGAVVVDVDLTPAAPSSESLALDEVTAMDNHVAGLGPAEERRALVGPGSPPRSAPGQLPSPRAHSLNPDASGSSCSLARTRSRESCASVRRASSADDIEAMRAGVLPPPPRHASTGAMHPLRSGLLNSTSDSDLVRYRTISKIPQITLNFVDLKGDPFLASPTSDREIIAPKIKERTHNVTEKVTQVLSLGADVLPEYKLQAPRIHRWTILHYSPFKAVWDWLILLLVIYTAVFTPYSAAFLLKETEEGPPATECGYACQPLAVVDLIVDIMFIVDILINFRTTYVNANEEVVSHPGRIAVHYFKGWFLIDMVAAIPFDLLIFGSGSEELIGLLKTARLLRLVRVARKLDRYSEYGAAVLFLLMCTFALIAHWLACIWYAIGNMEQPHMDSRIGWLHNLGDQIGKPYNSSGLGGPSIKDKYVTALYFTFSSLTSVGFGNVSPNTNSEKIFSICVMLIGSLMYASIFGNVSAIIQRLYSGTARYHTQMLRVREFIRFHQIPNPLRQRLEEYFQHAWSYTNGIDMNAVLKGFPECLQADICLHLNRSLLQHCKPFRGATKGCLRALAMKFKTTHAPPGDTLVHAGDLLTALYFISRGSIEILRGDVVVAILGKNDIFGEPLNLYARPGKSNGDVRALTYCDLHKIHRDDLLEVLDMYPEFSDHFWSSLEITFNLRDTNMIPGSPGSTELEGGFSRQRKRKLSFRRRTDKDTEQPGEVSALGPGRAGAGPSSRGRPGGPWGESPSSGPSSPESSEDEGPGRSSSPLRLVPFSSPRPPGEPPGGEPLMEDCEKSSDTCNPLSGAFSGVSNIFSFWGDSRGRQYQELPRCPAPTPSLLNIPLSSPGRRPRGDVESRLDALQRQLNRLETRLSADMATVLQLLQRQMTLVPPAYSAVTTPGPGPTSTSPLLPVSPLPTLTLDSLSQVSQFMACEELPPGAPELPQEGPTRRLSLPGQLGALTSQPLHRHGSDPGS

| SMILES | hERG current change (%, negative = inhibition) at 1uM [%] |
| --- | --- |
| N#CC(C#N)=C/C(C#N)=C(/N)N1CCN(c2ccc(Cl)cc2)CC1 | -2.49 |
| CC12CCC(=O)N1C(C(=O)NNC(=O)c1ccccc1)CS2 (stereo not shown) | 3.15 |
| CCC(C(=O)NC1CCCC1)n1nc(C)n2c(cc3occc32)c1=O (stereo not shown) | 11.1 |
| COc1cccc2c(=O)c(C/C=C(/C)Cl)c(C)[nH]c12 | 13.4 |
| O=C(c1cnn2c(C(F)(F)F)cc(-c3ccco3)nc12)N1CCCCCC1 | 4.89 |
| Cc1ccc(Cn2c(C3CCCN3c3nc(-c4cc(Cl)c(N)c(Cl)c4)cs3)nc3cc(Cl)c(Cl)cc32)cc1 (stereo not shown) | 15 |
| CCN(CC)c1ccc(NC(=O)C(C)C)cc1 | 8.82 |
| CC(C)(C)C(=O)N(Cc1nc2ccccc2c(=O)[nH]1)Cc1cccs1 | 3.2 |
| COc1ccc(OC)c(/C=N/n2c(-c3n[nH]c4c3CCC4)n[nH]c2=S)c1 | 7.55 |
| CCOC(=O)N1CCN(c2nc(C)c3c(n2)CCCC3=O)CC1 | 18.8 |
| Cn1c(=O)c2c(ncn2CC(=O)OCC(=O)Nc2sccc2C(N)=O)n(C)c1=O | 1.3 |
| CCOC(=O)C1(CCc2ccccc2)CCN(C(=O)c2cc(C)nc(C)n2)CC1 | 2.29 |
| O=C(O)c1ccc(OC2CSC2)cc1 | 20.5 |
| CC1(C)Cc2c(ccc3ccccc23)/C(=C/C(=O)N2CCCCC2)N1.Cl | 8.34 |
| Cc1ccc(OCCC(=O)OCC(=O)c2ccc3c(c2)NC(=O)CO3)cc1 | 0.269 |
| O=C(CSc1nnc(Cn2nnc3ccccc32)o1)N(Cc1ccc(Cl)cc1)c1ccccc1 | 2.94 |
| Cc1ccc(NC(=O)C2CCC(=O)N2)cc1C (stereo not shown) | 12.1 |
| O=C(CCNC(=O)c1ccc([N+](=O)[O-])cc1)NNC(=O)c1ccccc1F | 10.5 |
| Cc1nnc(SCc2cccc(Cl)c2)n(N)c1=O | 7.4 |
| O=C(Nc1ccc(Oc2ccc(Br)cc2)cc1)C1=CC=CN2CCS(=O)(=O)N=C12 | 4.25 |
| O=C(Nc1nnc(-c2ccccc2)o1)c1nc2ccccc2s1 | 15 |
| Cc1ccc(N2C(=O)C3N=NN(CC(=O)N4N=C(c5ccccc5)CC4c4ccccc4)C3C2=O)cc1 (stereo not shown) | 1.61 |

| SMILES | hERG current change (%, negative = inhibition) at 1uM [%] |
| --- | --- |
| O=C(CN(C(=O)CCC(=O)Nc1ccccn1)c1ccc(F)cc1)NCc1ccco1 | 13.1 |
| O=C(CN1CCCc2ccccc21)NC(=O)NCc1ccco1 | 11.5 |
| CCCCCCCCCCS(=O)(=O)N/N=C/c1ccc([N+](=O)[O-])cc1 | 12.9 |
| COc1ccc(N2C(=O)C(F)(F)C2c2ccc(C)cc2)cc1OC (stereo not shown) | 6.63 |
| Cn1c(CC(=O)Nc2ccc(F)cc2)nnc1SCC(=O)NC1CCCCC1 | 20 |
| CCN(CC)C(=O)c1sc(NC(=O)c2cccc([N+](=O)[O-])c2)c(C#N)c1C | 7.41 |
| Cc1cc(/C=N/NC(=O)c2ccc(CN3CCOCC3)cc2)c(C)n1-c1ccccc1 | -8.78 |
| O=C(COc1ccccc1Cl)N1CCc2ccccc2C1 | 18.6 |
| Fc1ccc(N2CCN(C(c3cccs3)c3nnnn3C3CCCC3)CC2)cc1 (stereo not shown) | -12.1 |
| CCC(=O)N1CCc2cc(OC)c(OC)cc2C1COc1ccc(C(=O)OC)cc1 (stereo not shown) | 5.53 |
| Cc1nc(N2CCOCC2)c2c(C)c(C(=O)Nc3ccc(C(F)(F)F)cc3)sc2n1 | -2.56 |
| CCC(C)c1ccc(-n2c(=O)c3ccccc3n3c(=S)[nH]nc23)cc1 (stereo not shown) | 14.9 |
| C[n+]1cnn2c1SCC1(COC1)C2.[I-] | 8.87 |
| COc1cccc(NC(=O)CN(C)C(=O)CSc2ccc3c(c2)OCCO3)c1 | 4.45 |
| Cc1cc(F)ccc1NC(=O)c1ccc(NS(=O)(=O)c2cc(C(C)(C)C)ccc2C)cc1 | 9.77 |
| Cc1csc(Nc2ccccc2)[n+]1-c1ccccc1.[Br-] | 7.89 |
| CCCCNC(=O)/C(C#N)=c1\s/c(=C\c2ccccc2OC(F)F)c(=O)n1CCCOC | 19.5 |
| O=C(CSc1cc(Cl)ccc1Cl)NCCCn1ccnc1 | 13 |
| COC(=O)COc1ccc(Oc2cc(C)nc(SC)n2)nn1 | 9.92 |
| CCOc1ccc(/C(O)=C2/C(=O)C(=O)N(CCCn3ccnc3)C2c2cccs2)cc1Cl (stereo not shown) | 2.45 |
| CCOC(=O)C(C)n1cnc2c(nnn2Cc2ccc(Cl)cc2)c1=O (stereo not shown) | -5.02 |
